Results published in publication PMC4336329 (PLoS ONE, 2015).
About 14,000 (4.5%) of roughly 310,000 compounds showed an effect of 50% or more. The effect is printed as a negative number. The list shows a part of the results.

Target: human ether-à-go-go-related gene (hERG) potassium channel (human, UniProt Q12809)
Assay: primary screen, population patch clamp on CHO cells stably expressing hERG
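Further: peak tail current of the secondary pulse compared with the same well before compound.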

human ether-à-go-go-related gene (hERG) potassium channel, sequence (Q12809 whole entry, looked up): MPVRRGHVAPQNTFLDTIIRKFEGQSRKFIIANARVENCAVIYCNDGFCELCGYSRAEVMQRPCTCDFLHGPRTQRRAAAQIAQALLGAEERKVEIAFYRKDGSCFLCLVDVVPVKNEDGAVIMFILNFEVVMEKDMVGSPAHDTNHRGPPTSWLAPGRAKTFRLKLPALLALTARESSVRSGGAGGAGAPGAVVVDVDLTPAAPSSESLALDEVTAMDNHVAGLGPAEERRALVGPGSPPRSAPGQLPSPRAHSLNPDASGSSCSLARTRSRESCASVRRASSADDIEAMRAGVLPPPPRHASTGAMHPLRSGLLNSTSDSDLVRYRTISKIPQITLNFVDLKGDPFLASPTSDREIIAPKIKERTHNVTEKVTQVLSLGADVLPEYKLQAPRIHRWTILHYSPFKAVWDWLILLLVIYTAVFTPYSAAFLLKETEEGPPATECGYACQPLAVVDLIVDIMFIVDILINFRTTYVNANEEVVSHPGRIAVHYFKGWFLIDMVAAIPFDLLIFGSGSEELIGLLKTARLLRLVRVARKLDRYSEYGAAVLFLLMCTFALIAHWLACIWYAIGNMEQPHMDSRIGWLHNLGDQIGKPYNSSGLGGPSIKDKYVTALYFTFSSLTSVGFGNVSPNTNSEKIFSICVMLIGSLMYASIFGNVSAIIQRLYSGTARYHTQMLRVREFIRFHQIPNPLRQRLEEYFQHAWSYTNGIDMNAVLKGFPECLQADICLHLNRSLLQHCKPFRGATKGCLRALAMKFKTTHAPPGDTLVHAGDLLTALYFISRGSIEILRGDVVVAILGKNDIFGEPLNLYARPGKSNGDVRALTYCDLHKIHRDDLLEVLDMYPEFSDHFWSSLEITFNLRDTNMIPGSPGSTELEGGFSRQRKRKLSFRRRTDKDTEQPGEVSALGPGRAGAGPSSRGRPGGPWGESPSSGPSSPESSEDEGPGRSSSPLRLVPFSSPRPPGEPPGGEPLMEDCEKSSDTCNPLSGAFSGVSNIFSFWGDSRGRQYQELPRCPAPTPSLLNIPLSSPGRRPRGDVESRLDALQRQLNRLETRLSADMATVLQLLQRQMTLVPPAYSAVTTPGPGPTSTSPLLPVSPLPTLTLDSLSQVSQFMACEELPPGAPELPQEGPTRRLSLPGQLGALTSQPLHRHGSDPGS

| Structure (SMILES) | hERG current change (%, negative = inhibition) at 10uM |
| --- | --- |
| O=C(O/N=C1\CCS(=O)(=O)c2sccc21)c1ccc(F)cc1 | 45% |
| COc1ccc(N2C(=S)N(C(=O)c3ccccc3)C(=Nc3ccccc3)C2=Nc2ccccc2)cc1 | -3.16% |
| Cc1ccc2nc(-c3ccccc3O)c(Nc3ccc4c(c3)OCCO4)n2c1 | 9.98% |
| CC(=O)Nc1ccc(NC(=O)CCCc2c[nH]c3ccccc23)cc1 | 22.6% |
| CCC(=O)Nc1nnc(CCc2ccccc2)s1 | 2.02% |
| O=C(NNC(=S)NC(=O)c1ccccc1[N+](=O)[O-])c1ccccc1[N+](=O)[O-] | 15.1% |
| O=C(CCCN1C(=O)/C(=C/c2ccc3c(c2)OCO3)SC1=S)Nc1ccc(C(=O)O)cc1 | -1.02% |
| CC1=NCCN1S(=O)(=O)c1cccc([N+](=O)[O-])c1 | 14.6% |
| CCOC(=O)N1CCN(C(=O)C2CCN(S(=O)(=O)c3ccc(OCC)cc3)CC2)CC1 | -21.7% |
| C=CCn1c(COc2ccccc2-c2ccccc2)nnc1SCC(=O)NC(=O)NCc1ccco1 | 22.2% |
| O=C(CSc1nc(-c2ccccc2)c(-c2ccccc2)[nH]1)NCc1ccco1 | -1.63% |
| O=C(C1CC1)N1CCc2cc(Br)cc(S(=O)(=O)NCc3ccccn3)c21 | 11.1% |
| COC(=O)c1ccc(CSc2nc3ccccc3[nH]2)o1 | 5.04% |
| COc1ccc(OCc2cc(C(=O)N(C)Cc3cc(C4CC4)n[nH]3)no2)c(Cl)c1 | -33% |
| COCC(C)NS(=O)(=O)c1ccc(NC(=O)C(Cc2ccccc2)NC(N)=O)cc1 (stereo not shown) | 8.59% |
| CS(=O)(=O)C1=NSC2=NC(=O)/C(=C\c3ccc(OS(=O)(=O)c4ccccc4)cc3)C(=N)N21 | 21.5% |
| COc1ccc(NC2CCCN(C(=O)c3cccc(C(F)(F)F)c3)C2)cc1OC (stereo not shown) | 0.146% |
| CCOc1ccc(OCc2ccc(C(=O)N3CCOCC3)cc2)cc1 | 9.68% |
| O=C(COC(=O)c1ccc(O)cc1)Nc1ccc(Cl)cc1C(=O)c1ccccc1 | -4.15% |
| Cc1cc(C=NCCO)c(C)n1-c1cc(Cl)ccc1Cl | -3.53% |
| Cc1nn(Cc2ccccc2)c(Cl)c1C(=O)OCC(=O)Nc1cccc2ccccc12 | 8.73% |
| O=C(O)c1c[nH]c2ccc(S(=O)(=O)N(CCCl)CCCl)cc12 | 10.9% |
| CCOC(=O)c1c(C)[nH]c(C=O)c1Cc1cccc(Cl)c1 | 6.47% |
| COc1ccc(Cl)cc1NC(=O)CN(C)CC(=O)Nc1ccc(C)cc1Br | 6.5% |
| Cn1nccc1/C=N\NC(=O)c1ccc(Cl)cc1 | 26.9% |
| O=C1CC(N2CCN(Cc3ccccc3)CC2)C(=O)N1CCc1ccccc1 (stereo not shown) | -27.6% |
| CC(=O)c1cccc(N(C(=O)CNC(=O)c2ccco2)C(C(=O)NC2CCCC2)c2ccncc2)c1 (stereo not shown) | 0.635% |
| CC(C)C[C@H](N)c1nnc(S(=O)(=O)Cc2cccc(F)c2)o1.Cl | 4.34% |

| Structure (SMILES) | hERG current change (%, negative = inhibition) at 10uM |
| --- | --- |
| Cc1ccccc1NC(=O)c1cc[n+]([O-])cc1 | 27.6% |
| C=CCOC(=O)C1=C[C@H](c2ccc(Br)cc2)[C@@H](CCCO)[C@H](OCC)O1 | -55.3% |
| CC(=O)c1cc(C#N)c(NCCCN(C)C)nc1C | 5.02% |
| CC(=O)N1CCN(Cc2ccc(Cl)nc2)CC1 | 18.5% |
| CCCOc1ccc(C2NC(=O)NC(c3ccccc3)=C2C(C)=O)cc1OCC (stereo not shown) | -5.34% |
| Cc1cc(C)c(S(=O)(=O)Nc2nnc(C)s2)c(C)c1 | 1.72% |
| CN1CCN(C(=O)/C(=C/c2cccc([N+](=O)[O-])c2)NC(=O)c2ccccc2)CC1 | -72.6% |
| O=C(COC(=O)c1ccccc1Br)NCc1ccccc1 | -8.23% |
| O=C(CSc1nc2ccccc2o1)N1CCN(C(=O)c2ccco2)CC1 | -33.1% |
| COc1ccccc1N1CCN(C(=O)c2oc3ccc(F)cc3c2C)CC1 | 2.12% |
| CCOc1cc(N2CCOCC2)c(OCC)cc1NC(=O)Cc1cn2ccsc2n1 | 3.99% |
| CSc1ccc(CNC(C)C(O)c2ccccc2)cc1.Cl (stereo not shown) | -51.4% |
| Cc1ccc(S(=O)(=O)CCC(=O)Nc2ccccc2C)cc1 | 11.6% |
| C/C(CC(=O)NC1CCCCC1)=N\NC(=O)Cc1ccc(-c2ccccc2)cc1 | 25.6% |
| CCCc1cc(=O)[nH]c(Nc2ccc(OC)c(Cl)c2)n1 | -2.06% |
| Cc1ccc(C(=O)NCCNC(=O)Cc2ccccc2)cn1 | 27.4% |
| CCOC(=O)CC(NC(=O)c1cc2cc(Cl)cc(Cl)c2oc1=O)c1cccc([N+](=O)[O-])c1 (stereo not shown) | -66.8% |
| CN(C(=O)COc1nnc(-c2cccs2)c(-c2cccs2)n1)c1ccccc1 | -34.3% |
| CC(O)Cn1c(N2CCCC2)nc2c1c(=O)[nH]c(=O)n2C (stereo not shown) | 17.7% |
| O=C(Cn1cnc2c(nnn2-c2ccc(F)cc2)c1=O)NCC1CCCO1 (stereo not shown) | 3.12% |
| CCOc1ccc(Nc2ccc(C(=O)O)cc2[N+](=O)[O-])cc1 | 18.7% |
| CCN(CC)S(=O)(=O)c1ccc(Oc2ccccc2OC)cc1 | -65.3% |
| O=c1[nH]c(SCc2ccc(F)cc2)nc2c1cnn2-c1ccc(F)cc1 | 12.3% |
| C=CC[N+]1(C)CC[C@]23c4c5ccc(O)c4O[C@H]2C(=O)CC[C@@]3(O)[C@H]1C5.[I-] (stereo partly shown) | 17.8% |
| CCn1c(=O)c(C(=O)NNC(=O)c2ccccc2F)c(O)c2ccccc21 | 3.3% |
| Cc1ccc(-c2nc(CN(C)C)cc(CN(C)C)c2O)cc1.Cl | -14.6% |
| c1ccc(-n2ncc3cccnc32)cc1 | 8.53% |
